The text below walks through data of the supplement of paper PMC8728848.

Holding throughout (experiment): glycan array binding signal (z-score within array); higher = stronger binding
Details in all cases: glycan notation: IUPAC condensed, linker removed

Assay [1] addresses Gal(b1-4)GlcNAc(b1-2)Man(a1-6)[Man(a1-3)]Man(b1-4)GlcNAc(b1-4)GlcNAc. In outline:
(§1)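 The binding signal is a Z-score computed within each array. Data were drawn from 3228 arrays in the Consortium for Functional Glycomics database, restricted to those with a known protein sequence. Scores were averaged over arrays of the same protein sequence at different concentrations or buffers, and over linkers, and negative values can be taken as non-binding.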

Assay [2] concerns the target Gal(b1-4)GlcNAc(b1-2)[Gal(b1-4)GlcNAc(b1-4)]Man(a1-3)[Gal(b1-4)GlcNAc(b1-2)Man(a1-6)]Man(b1-4)GlcNAc(b1-4)GlcNAc. Put shortly: as §1
Assay [3] has as its target Gal(b1-4)GlcNAc(b1-2)[Gal(b1-4)GlcNAc(b1-4)]Man(a1-3)[Gal(b1-4)GlcNAc(b1-2)[Gal(b1-4)GlcNAc(b1-6)]Man(a1-6)]Man(b1-4)GlcNAc(b1-4)GlcNAc. In outline:
as §1

For assay [4], the target named is Gal(b1-4)GlcNAc(b1-2)[Gal(b1-4)GlcNAc(b1-4)]Man(a1-3)[GlcNAc(b1-4)][Gal(b1-4)GlcNAc(b1-2)Man(a1-6)]Man(b1-4)GlcNAc(b1-4)GlcNAc. In outline:
as §1

Assay [5] has as its target Gal(b1-4)GlcNAc(b1-2)[Gal(b1-4)GlcNAc(b1-4)]Man(a1-3)[GlcNAc(b1-4)][Gal(b1-4)GlcNAc(b1-2)[Gal(b1-4)GlcNAc(b1-6)]Man(a1-6)]Man(b1-4)GlcNAc(b1-4)GlcNAc. Put shortly:
as §1

The target of assay [6] is Gal(b1-4)GlcNAc(b1-2)[Gal(b1-4)GlcNAc(b1-6)]Man(a1-6)[Gal(b1-4)GlcNAc(b1-2)Man(a1-3)]Man(b1-4)GlcNAc(b1-4)GlcNAc. Put shortly: as §1
Assay [7] concerns the target Gal(b1-4)GlcNAc(b1-2)[Gal(b1-4)GlcNAc(b1-6)]Man(a1-6)[Gal(b1-4)GlcNAc(b1-2)Man(a1-3)]Man(b1-4)GlcNAc(b1-4)[Fuc(a1-6)]GlcNAc. In outline: as §1
The target of assay [8] is Gal(b1-4)GlcNAc(b1-2)[Gal(b1-4)GlcNAc(b1-6)]Man(a1-6)[GlcNAc(b1-4)][Gal(b1-4)GlcNAc(b1-2)Man(a1-3)]Man(b1-4)GlcNAc(b1-4)GlcNAc. In outline: as §1
For assay [9], the target named is Gal(b1-4)GlcNAc(b1-2)[Gal(b1-4)GlcNAc(b1-6)]Man(a1-6)[GlcNAc(b1-4)][Gal(b1-4)GlcNAc(b1-2)[Gal(b1-4)GlcNAc(b1-4)]Man(a1-3)]Man(b1-4)GlcNAc(b1-4)[Fuc(a1-6)]GlcNAc. In outline:
as §1

The target of assay [10] is Gal(b1-4)GlcNAc(b1-3)Gal(b1-3)GalNAc. Put shortly: as §1
In assay [11] the target is Gal(b1-4)GlcNAc(b1-3)Gal(b1-3)GlcNAc. In outline:
as §1

The target in assay [12] is Gal(b1-4)GlcNAc(b1-3)Gal(b1-4)Glc. In outline: as §1
Assay [13] deals with Gal(b1-4)GlcNAc(b1-3)Gal(b1-4)GlcNAc. Put shortly: as §1
Assay [14] concerns the target Gal(b1-4)GlcNAc(b1-3)Gal(b1-4)GlcNAc(b1-2)Man(a1-3)[Gal(b1-4)GlcNAc(b1-3)Gal(b1-4)GlcNAc(b1-2)Man(a1-6)]Man(b1-4)GlcNAc(b1-4)GlcNAc. Put shortly:
as §1

For assay [15], the target named is Gal(b1-4)GlcNAc(b1-3)Gal(b1-4)GlcNAc(b1-2)Man(a1-3)[Gal(b1-4)GlcNAc(b1-3)Gal(b1-4)GlcNAc(b1-2)Man(a1-6)]Man(b1-4)GlcNAc(b1-4)[Fuc(a1-6)]GlcNAc. Put shortly:
as §1

Assay [16] concerns the target Gal(b1-4)GlcNAc(b1-3)Gal(b1-4)GlcNAc(b1-2)[Gal(b1-4)GlcNAc(b1-3)Gal(b1-4)GlcNAc(b1-6)]Man(a1-6)[Gal(b1-4)GlcNAc(b1-3)Gal(b1-4)GlcNAc(b1-2)Man(a1-3)]Man(b1-4)GlcNAc(b1-4)GlcNAc. Put shortly: as §1
For assay [17], the target named is Gal(b1-4)GlcNAc(b1-3)Gal(b1-4)GlcNAc(b1-2)[Gal(b1-4)GlcNAc(b1-3)Gal(b1-4)GlcNAc(b1-6)]Man(a1-6)[Gal(b1-4)GlcNAc(b1-3)Gal(b1-4)GlcNAc(b1-2)Man(a1-3)]Man(b1-4)GlcNAc(b1-4)[Fuc(a1-6)]GlcNAc. In outline:
as §1

The target in assay [18] is Gal(b1-4)GlcNAc(b1-3)Gal(b1-4)GlcNAc(b1-3)Gal(b1-4)GlcNAc. In outline: as §1

The list shows a part of the results.

B1: PX9961X-pdi-531-24-531 (Parabacteroides distasonis) (protein)
chain: DLTEEIHSSVIAENYYNNAGEVMAAMMRPWGHFCGTMQVAQSPWSCNELSSDCAAWPQKGRHGYDNGDWIRLHRHQWIPTDGQVVDAWKKLFEGIGYANNFLTDTENIDFEALQVPMSKAQAQAEMRVYRAYCYWYVMDMFGTAPICEKIGEINPSSKSRAELFAWIEKELNESIPSLSESKTETYGRVSKWGAYALLARLYLNAEIYTGQARWDDCIAACDELAKGGFALDKKWNDTFRADNDKRSTEIIWSIVYDEVYAKGMGWYQRWLHYAHQTGWDLQSGPWNGLVTQPTFYDSFADNDLRKIEGFLIGKQYPRKVDENGNYYYDTTAEPLKGSEEYNGQDLVFVNYIKSMTEGEENSGARSIKYEIQPGTTGDMNNDWVMFRYSEVIYNKAEALMRKNGGKATQEVVDMINSVRQRSFKAEDWEKAKYTTATLTMDEFLAEKGREFAFEGIRRTDLVRFNKFVTTSWWDKTASNEPKRNIFPIPQRQLDANANLSPNEANSLF
For B1, the “glycan array binding signal (z-score)” value is 0.523 in [1]; 0.522 in [2]; -0.365 in [3]; -0.689 in assay [4]; 0.12 in assay [5]; 0.351 in assay [6]. The “glycan array binding signal (z-score)” value in assay [7] is 1.04; in [8], 1.62; in assay [9], 0.08; in [10] it was -0.321; in assay [11], -0.526; in assay [12], -0.243. Moreover, the “glycan array binding signal (z-score)” value in [13] was -0.417; in assay [14] it was 0.687; in assay [15], -0.13; in assay [16], 2.17; in assay [17], 1.85; in assay [18], -0.056.
